# Data taken from the supplement of paper PMC9135407.
# Where “and” joins values, the source holds several entries; their conditions need not be identical. Identical values can stand only once. Counter-ions that a name gives are not always drawn. About 620 (11%) of roughly 5,800 compounds showed activity.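 How the source made its calls: active = score above a cut-off or among the top three wells of a plate; in these data no inactive exceeds 0.85.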 Only a part is listed here, and it is no random draw.
# Tested on: primary human hepatic stellate cells (donor 1)
# Experiment: scaled lipid accumulation score (0 = DMSO-like, 1 = nortriptyline-like); higher = stronger HSC inactivation (lipid re-accumulation), active = hit call of the paper
# Conditions: 48 h
# [1] = library stock concentration: 10 mM
# [2] = library stock concentration: 3.33 mM
smiles,measurement,setting,value
O=C1Nc2cc(Cl)c(Cl)cc2N2CCNCC12 (stereo not drawn),scaled lipid accumulation score,[1],inactive: 0.49
CCCCCCCC/C=C\CCCCCCCC(=O)OC[C@@H](COP(O)(O)=S)OC,scaled lipid accumulation score,library stock concentration: 1 mM,inactive: 0.084
CCC1(c2cccc(O)c2)CCCCN(C)C1 (stereo not drawn) [Meptazinol hydrochloride],scaled lipid accumulation score,,inactive: 0.129
CCC1(c2cccc(O)c2)CCCCN(C)C1 (stereo not drawn) [Meptazinol HCl],scaled lipid accumulation score,[2],inactive: ≤ 0
same,scaled lipid accumulation score,[1],inactive: 0.123
CC[C@H]1[C@@H]2C[C@H]3[C@@H]4N(C)c5ccccc5[C@]45C[C@@H]([C@@H]2[C@H]5O)N3[C@@H]1O [Ajmaline],scaled lipid accumulation score,,inactive: 0.12
same,scaled lipid accumulation score,[1],inactive: ≤ 0
CS(=N)(=O)CC[C@H](N)C(=O)O (stereo partly drawn) [Methionine sulfoximine (L)],scaled lipid accumulation score,,inactive: 0.025
CS(=N)(=O)CC[C@H](N)C(=O)O (stereo partly drawn) [L-Methionine sulfoximine],scaled lipid accumulation score,[1],inactive: ≤ -0.055
O=C(CCCN1CCC2(CC1)C(=O)N(Cc1cccc(F)c1)CN2c1ccccc1)c1ccc(F)cc1.O=C(O)/C=C\C(=O)O [3'-Fluorobenzylspiperone maleate],scaled lipid accumulation score,[1],active: 0.967
C[C@@H]1CC[C@H]2[C@@H](C)C(=O)O[C@@H]3O[C@@]4(C)CC[C@@H]1[C@]32OO4 [Artemisinin],scaled lipid accumulation score,,inactive: ≤ 0
same,scaled lipid accumulation score,[2],inactive: ≤ 0
same,scaled lipid accumulation score,library stock concentration: 7.1 mM,inactive: ≤ 0
same,scaled lipid accumulation score,[1],inactive: 0.151 and inactive: ≤ 0 and inactive: ≤ -0.001
CCNC1(c2cccs2)CCCCC1=O (stereo not drawn) [Tiletamine hydrochloride],scaled lipid accumulation score,,inactive: ≤ 0
Cc1ccc(O)cc1.Cc1cccc(O)c1.Cc1ccccc1O [Cresol],scaled lipid accumulation score,[1],inactive: 0.068
same,scaled lipid accumulation score,library stock concentration: 18.5 mM,inactive: 0.014
CCN1C[C@]2(COC)CC[C@H](O)[C@@]34C5C[C@@H]6[C@@H](OC)C[C@](O)(C(CC23)C14)C5[C@H]6OC(C)=O (stereo partly drawn) [Condelphine],scaled lipid accumulation score,,inactive: ≤ 0
C#C[C@]1(O)C=C[C@H]2[C@@H]3CCC4=CC(=O)CC[C@@H]4[C@H]3CC[C@@]21CC [Gestodene],scaled lipid accumulation score,[2],inactive: ≤ 0
same,scaled lipid accumulation score,[1],inactive: ≤ 0
C[C@]12Cc3c[nH]nc3C[C@@H]1CC[C@@H]1[C@@H]2CC[C@@]2(C)[C@H]1CC[C@]2(C)O [Stanozolol],scaled lipid accumulation score,library stock concentration: 6.1 mM,inactive: ≤ 0
same,scaled lipid accumulation score,[1],inactive: ≤ 0
Cc1nnc2ccc(-c3cccc(C(F)(F)F)c3)nn12,scaled lipid accumulation score,[1],inactive: 0.086
COc1cc2c(cc1-c1cc3cc4ccoc4cc3oc1=O)OCO2 [Pachyrrhizin],scaled lipid accumulation score,[1],inactive: 0.126
NCC(=O)O.[C-]#[O+].[C-]#[O+].[C-]#[O+].[Cl][Ru],scaled lipid accumulation score,[2],inactive: ≤ -0.009
same,scaled lipid accumulation score,[1],inactive: ≤ 0
Cc1cc(C(=O)CN2CCCC2)c(C)n1-c1ccc(F)cc1,scaled lipid accumulation score,[2],inactive: ≤ -0.009
same,scaled lipid accumulation score,[1],inactive: 0.244
